Results published in PubChem BioAssay AID1671188 (National Center for Advancing Translational Sciences (NCATS), 2021).
In all, about 100,000 compounds went through this assay and about 250 (0.25%) were called active. Inconclusive results, whose numbers are uncertain, are shown with a selection of clear calls. Calls come from the whole dose curve; as a rule, active = well fitted inhibition curve with a large enough effect; inconclusive = small, poorly fitted or top-dose-only effect; inactive = flat fitted curve, though single readings scatter. No potency is given beside an inconclusive call; the fits are too rough.
Note: nearly all actives have a fitted effect of over 60% in size.
Potency is the fitted concentration of half-maximal effect; tags give direction and shape of the fitted curve.

The compounds below were run against Alanine aminotransferase 2 (Homo sapiens) (UniProt Q8TD30) (assay: Primary qHTS assay for inhibitors of Glutamate pyruvate transaminase 2 (GPT2)). Settings: Recombinant GPT2, coupled pyruvate oxidase/HRP Amplex Red fluorescence; series mostly up to 57.7 µM.
UniProt Q8TD30, sequence (Q8TD30 whole entry, looked up): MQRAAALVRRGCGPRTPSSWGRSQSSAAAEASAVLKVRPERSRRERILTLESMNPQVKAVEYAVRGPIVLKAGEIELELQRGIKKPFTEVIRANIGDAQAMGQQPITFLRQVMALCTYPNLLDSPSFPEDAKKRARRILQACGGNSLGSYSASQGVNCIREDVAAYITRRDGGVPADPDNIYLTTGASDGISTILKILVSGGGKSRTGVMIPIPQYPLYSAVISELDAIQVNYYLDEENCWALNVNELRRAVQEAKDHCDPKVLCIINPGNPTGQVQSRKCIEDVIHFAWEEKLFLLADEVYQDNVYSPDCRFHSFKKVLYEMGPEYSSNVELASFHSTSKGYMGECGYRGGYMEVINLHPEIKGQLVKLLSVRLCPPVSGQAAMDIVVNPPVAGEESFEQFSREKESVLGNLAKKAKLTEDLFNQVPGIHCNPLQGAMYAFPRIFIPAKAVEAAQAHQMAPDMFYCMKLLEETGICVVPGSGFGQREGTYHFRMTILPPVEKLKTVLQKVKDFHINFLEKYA
How it was run: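 GPT2 10ng/uL, a-KG 250uM, L-Ala 2mM, HEPES pH7.5 + 0.0001% Tween; 30 min RT. Then Amplex mix (PO/HRP/ThPP), 30 min RT dark, fluorescence. AOA 50uM used as positive control.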
In the case of `COc1ccccc1C(=O)NCCn1ccn2nc(-c3ccc(C)cc3C)cc2c1=O`, the Potency was “inactive”.
`O=c1cc(-c2ccncc2)oc2c(-c3ccc(CO)cc3)nccc12` was tested, and the Potency was inconclusive [inhibitor, single point].
In the case of `C=CCNC1=C2C[C@@H](C)C[C@H](OC)[C@@H](O)[C@@H](C)C=C(C)[C@H](OC(N)=O)[C@@H](OC)C=CC=C(C)C(=O)NC(=CC1=O)C2=O`, the Potency was “inactive”.
In the case of `CN1CCCN(C[C@@H]2CN(C(=O)c3ccn(C)n3)C[C@@H]2CO)CC1`, the Potency was inconclusive [inhibitor, partial curve, poor fit].
In the case of `CN1CCN(C(=O)CC[C@H]2CNC(=O)[C@@H]3[C@@H](CCN3C3CCOCC3)N2C)CC1`, the Potency was inconclusive [inhibitor, single point].
In the case of `COc1cc(OC)cc(-c2nn(-c3ccc(C)cc3C)c(OC(C)=O)c2-c2ccc(NC(C)=O)cc2)c1`, the Potency was active: 12.6 µM.
In the case of `Cc1ccccc1CC(=O)N1CC(F)(F)C[C@H]1c1nnc(C2CC2)o1`, the Potency was inconclusive [inhibitor, single point].
With `COc1cccc(C(=O)N2C(C(=O)NC3CC3)COC23CCN(C(=O)c2ccc(Cl)cc2)CC3)c1` (centres undefined) the Potency was inconclusive [inhibitor, full curve, poor fit].
With `Cc1ccc(-n2c(C3CCN(C(=O)c4cc(-c5ccc(F)cc5)n[nH]4)CC3)n[nH]c2=O)cc1` the Potency was “inactive”.
For `Cc1cnc(CCNC(=O)CCc2nc3ccccc3s2)n1C1CC1`, the Potency was inconclusive [inhibitor, single point].
`Cc1nn2c(c1-c1ccccc1-c1ccccc1)N(C(=O)c1cnccn1)CCC2` was tested, and the Potency was inconclusive [inhibitor, full curve, poor fit].
In the case of `COc1cccc(CC(=O)N2[C@@H]3CC[C@H]2CC(NC(=O)c2ccncc2)C3)c1` (some centres undefined), the Potency was inconclusive [inhibitor, partial curve, poor fit].
With `Cc1cccc(CC(=O)NC2CCN(c3cc(-c4cccs4)[nH]n3)C2)c1` (centres undefined) the Potency was inconclusive [inhibitor, partial curve].
For `CN(Cc1ccccc1)C1CCOC2(CCN(S(=O)(=O)c3ccc(F)cc3)CC2)C1` (centres undefined), the Potency was “inactive”.
For `NC1(C(=O)NCc2nc(-c3cccc(F)c3)c(-c3ccccn3)[nH]2)CCC1`, the Potency was inconclusive [inhibitor, single point].
With `Oc1ccc(-c2nc(C3CC3)nc3c2CN(CC2CC2)CC3)cc1` the Potency was inconclusive [inhibitor, single point].
In the case of `O=C1NC(=NC2CCCC2)C2(CCCN(CC3CCCCC3)C2)N1c1cc(F)cc(F)c1` (centres undefined), the Potency was inconclusive [inhibitor, partial curve, poor fit].
With `Cc1cc2c(C(C)C)c(O)c(O)c(C=O)c2c(O)c1-c1c(C)cc2c(C(C)C)c(O)c(O)c(C=O)c2c1O` the Potency was inconclusive [inhibitor, single point].
For `CN1C[C@@H](NC(=O)c2ccc3c(c2)OCO3)C[C@H]1c1nc(-c2ccc(Cl)cc2)no1`, the Potency was “inactive”.
`O=C(NCc1ccccc1)c1nc2sccn2c1-c1ccc(C(F)(F)F)cc1` was tested, and the Potency was “inactive”.
In the case of `CC1=CC[C@@]2(C)CC[C@@](O)(C(C)C)[C@@H]2[C@@H](O)C1`, the Potency was inconclusive [inhibitor, single point].
In the case of `COc1ccc(C(C(=O)O)N2CCN(c3nc(C)cnc3C)CC2)cc1` (centres undefined), the Potency was inconclusive [inhibitor, single point].
With `CCN1CCCC2(Cc3ccccc3CN(C(C)=O)C2)C1` (centres undefined) the Potency was “inactive”.
In the case of `COCCCNC(=O)C(NC(=O)c1ccccc1)C1CCN(C(=O)C2CC2)CC1` (centres undefined), the Potency was inconclusive [inhibitor, single point].
For `Cn1c2c(c3cc(F)ccc31)CN(C(=O)Nc1ccc(Cl)cc1)CC2`, the Potency was inconclusive [inhibitor, single point].
With `Cc1cccc(C)c1-c1nc(C(=O)N2CCCC2)n2ccccc12` the Potency was “inactive”.
With `COc1ccc(N2CCN(C(=O)CN3CC4CC(C3)[C@H]3CCCC(=O)N3C4)CC2)cc1` (some centres undefined) the Potency was inconclusive [inhibitor, single point].
In the case of `COC(=O)C[C@@H]1C(C(=O)O)=CO[C@@H](O[C@@H]2O[C@H](CO)[C@@H](O)[C@H](O)[C@H]2O)/C1=C\COC(=O)/C=C/c1ccc(O)c(OC)c1`, the Potency was inconclusive [inhibitor, partial curve, poor fit].
With `NCCn1cc(C(=O)NCCc2noc(-c3ccccc3)n2)nn1` the Potency was “inactive”.
In the case of `COc1cccc(OC)c1-c1cccc(C(=O)c2nccn2C)c1`, the Potency was inconclusive [inhibitor, partial curve].
With `COc1ccc(NC(=O)c2ccc3c(c2)N(C)C2CCCN2C3=O)cc1OC` (centres undefined) the Potency was “inactive”.
With `COc1ccc(C(=O)N2CCN3CCS(=O)(=O)N(C4CC4)C(=O)C3C2)c(OC)c1` (centres undefined) the Potency was “inactive”.
`COc1ncc(-c2cccc(COc3ccc4c(cnn4CC[S+](C)(=O)[O-])c3)c2)cn1` was tested, and the Potency was inconclusive [inhibitor, partial curve, poor fit].
With `CN(C1CCc2nn(C)c(=O)n2CC1)S(=O)(=O)c1ccc2c(c1)CCCC2` (centres undefined) the Potency was inconclusive [inhibitor, single point].
For `COCc1cc(C[C@@H]2C[C@H](NC(=O)CC(C)(C)C)C2(C)C)no1`, the Potency was inconclusive [inhibitor, single point].
With `C[C@@H]1COC(Nc2ccc3ncnc(Nc4ccc(OCc5nccs5)c(Cl)c4)c3c2)=N1` the Potency was “inactive”.
`C[C@@H]1O[C@@H](OC[C@H]2O[C@@H](Oc3cc(O)cc4c3C(=O)C(O)(Cc3ccc(O)cc3)O4)[C@H](O)[C@@H](O)[C@@H]2O)[C@H](O)[C@H](O)[C@H]1O` (some centres undefined) was tested, and the Potency was inconclusive [inhibitor, single point].
With `CCCCc1ncc(-c2c(-c3ccccc3)ncn2CCCn2ccnc2)[nH]1` the Potency was inconclusive [inhibitor, partial curve, poor fit].
In the case of `Cn1cnc2ccc(-c3cccc(O)c3)nc2c1=O`, the Potency was inconclusive [inhibitor, single point].
